Some of the results follow. At the low end of the ranking, values are background and their order means little.
Molecular target: SIX1 homeodomain (reference allele) (UniProt Q15475)
Assay: universal protein binding microarray
Settings: Universal all-10-mer PBM (8x60K, AMADID 030236), 300 nM GST-tagged protein, Alexa Fluor 488 anti-GST; buffer, salt, pH and temperature not stated; high values mean tight binding; most listed sequences are background and not binding sites; double strand, one strand shown

Row | Sequence | binding signal [E-score]
1 | GATGTCGC | -0.229
2 | GCCAAGGC | -0.136
3 | ATTGTGAC | 0.142
4 | CATAAACG | 0.0571
5 | ACCTCTAC | 0.0436
6 | CCTATCAA | 0.288
7 | ACAAATAA | -0.0818
8 | CGTGGCAC | -0.237
9 | CTACTCCA | 0.131
10 | GGGTCAAC | 0.035
11 | CGACGAGC | -0.025
12 | AAGAGCTT | -0.15
13 | ATGTCTAC | -0.0119
14 | CCCGCCAG | 0.0813
15 | CATATCTC | 0.342
16 | AGCACCCA | -0.0303
17 | AGCGCGCG | -0.288
18 | CTCTGGCC | -0.041
19 | GACTGATA | 0.4
20 | TCGCGAAA | -0.0284
21 | GGACCATA | -0.043
22 | AAATACTG | 0.0394
23 | ATAGGCAC | 0.0509
24 | CTCTGTTC | -0.141
25 | ACGAAACT | 0.0396

Row | Sequence | binding signal [E-score]
26 | AGGCTATG | -0.0535
27 | ACCACTCT | -0.149
28 | GCATCCCA | -0.0537
29 | GGCGCTAA | -0.251
30 | GCCGCCCC | 0.0111
31 | CAAAAGGC | -0.251
32 | AGCCCAGG | -0.207
33 | AGAGCCAC | -0.0865
34 | CGAGGTTA | -0.017
35 | AGGGTCTC | -0.135
36 | ATGTCCCG | -0.151
37 | ATGTATTC | -0.0782
38 | GTATTGTA | 0.272
39 | AAGGACCC | -0.0989
40 | AAAGGGCT | -0.314
41 | ATGATTTA | -0.0781
42 | ACCGAAAA | -0.168
43 | ACCCCTCT | 0.236
44 | CACGCATC | 0.107
45 | AGCTACCT | -0.00585
46 | CTACGAAG | -0.121
47 | AAATTATC | 0.044
48 | CTGTTGTC | -0.221
49 | CTTGGTCC | -0.253
50 | ACCCGCTC | 0.077

Row | Sequence | binding signal [E-score]
51 | GGCGAACA | -0.0372
52 | ACATCACT | -0.0435
53 | CTTTGCAC | -0.131
54 | ACAGAGAA | -0.0446
55 | ATTTAGGG | -0.0266
56 | CAAGCATC | -0.0145
57 | CTGTGTCC | -0.242
58 | TAATCGCA | 0.0413
59 | ACATACGA | -0.0616
60 | ATGTAACA | 0.00835
61 | TCCCTCGA | 0.0166
62 | AGGCATAT | 0.308
63 | CTCAATCC | 0.0141
64 | GAGGGTGC | -0.196
65 | ACATTAAG | -0.051
66 | CTACATAG | -0.0401
67 | TGATGCAA | -0.0104
68 | AACTGAAG | -0.0689
69 | ACCTTGAG | 0.0283
70 | AGGGTTGC | -0.274
71 | GGCCCACC | -0.125
72 | CCGGGCTC | -0.0408
73 | CGGATTCC | 0.247
74 | CTTCTCCA | -0.0323
75 | AACGACTC | -0.289

Row | Sequence | binding signal [E-score]
76 | CATCGCCG | -0.0138
77 | AACTAATA | 0.124
78 | CGATGGAA | -0.251
79 | TCCGGGCA | -0.0183
80 | ATAGAGTG | 0.021
81 | CCTGCAAC | -0.112
82 | ACAGACGA | 0.00351
83 | GATATGCC | 0.427
84 | AGAAATTC | -0.0826
85 | ATTATCGG | 0.24
86 | AAACCACA | -0.0104
87 | ACTTAGAG | -0.056
88 | ATAATCGA | 0.123
89 | ATAGACAA | 0.0646
90 | AATGTGGA | -0.0229
91 | AAAGGGCA | 0.0669
92 | CCTCCGTC | 0.00335
93 | AGTGCTCC | -0.207
94 | ATAGCCAA | 0.218
95 | AACTCACA | -0.139
96 | GCTGTTCC | -0.205
97 | CACCTCAA | -0.0381
98 | CGACTTCA | -0.143
99 | CAAAGTTA | -0.188
100 | CTCCGTAA | -0.115

Row | Sequence | binding signal [E-score]
101 | CTACGAAC | -0.0905
102 | CTTCATTA | 0.0482
103 | CCCCGCTA | 0.188
104 | CCATTCGG | -0.016
105 | CCAAACAG | -0.051
106 | AGAGCTAG | 0.00963
107 | CATGAACC | -0.0472
108 | GACGACGA | -0.102
109 | AAAGGCTG | -0.0471
110 | CCCAATAC | 0.248
111 | ACTACCAG | -0.0492
112 | CATCGAAA | 0.0666
113 | ACCTACTA | 0.0903
114 | AGCACGCG | -0.113
115 | CCCGCCTC | 0.0254
116 | CAGCTTTC | -0.202
117 | ATCATTAG | 0.281
118 | CAGACCAC | -0.173
119 | AAGTGTGG | -0.217
120 | CCGGCGCA | 0.0263
121 | CCCAAAAA | -0.171
122 | CCATTTTC | -0.191
123 | CTAGAGCC | -0.184
124 | TCACTGCA | 0.0809
125 | CGGCGAGA | 0.0218

Row | Sequence | binding signal [E-score]
126 | CGTTGATA | 0.334
127 | GCGTTTAA | -0.158
128 | AAGCAGGA | 0.0204
129 | CAAGGTGG | -0.0251
130 | AGTTATCC | 0.295
131 | AATAGCTA | 0.0677
132 | GGGGGCGA | 0.0661
133 | AAGGGTCT | -0.181
134 | ATCTTGGG | 0.0749
135 | ACCATTAG | 0.0888
136 | CTTAATAC | 0.281
137 | CAGCCGTA | 0.0272
138 | CCGACGCG | -0.00796
139 | ACAGACTA | -0.221
140 | ACCCGATC | 0.372
141 | GGATGGGA | 0.195
142 | AAGACCAT | -0.0996
143 | CGTAAACC | 0.0445
144 | ACTGCACA | 0.0686
145 | GGACACAC | 0.0475
146 | GCCTCATA | -0.157
147 | ATCATTTG | 0.244
148 | GCACAAGC | -0.114
149 | TATATCGA | 0.387
150 | AATGTAAC | -0.0329

Row | Sequence | binding signal [E-score]
151 | TAATTGAA | -0.235
152 | GTAGAGAA | 0.0807
153 | ACACTCAT | 0.116
154 | GAATTACC | -0.0736
155 | TCCATTCA | 0.03
156 | GCTTACGA | -0.2
157 | AAGGCATG | -0.223
158 | GCTGGGGA | -0.017
159 | TGCTGAAA | -0.148
160 | AATCAGGG | 0.152
161 | AGATTTAC | -0.18
162 | GAAAGATA | 0.324
163 | AGATGCAA | -0.14
164 | CGGCGCGC | -0.131
165 | AGAATCAC | -0.0728
166 | TAGGCTCA | 0.0413
167 | CAACGCGA | -0.029
168 | AAGCATGT | -0.0961
169 | AAAGAAGA | -0.11
170 | AGGGAGCC | -0.142
171 | AACTAACC | -0.09
172 | ACAGCCAA | -0.278

— paper PMC10668032
